# Measured values taken from PMC6212790.
# The list shows a part of the results. At the low end of the ranking the order means little.
# Target: T1, GST-Rok-C97-191 (UniProt O34857)
# T1 sequence: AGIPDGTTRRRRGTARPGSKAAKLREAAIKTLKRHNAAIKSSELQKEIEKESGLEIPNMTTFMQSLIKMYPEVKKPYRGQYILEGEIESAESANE
# Test: protein binding microarray;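 note: rank score from −0.5 (least bound) to 0.5 (best bound)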
# Details: Rok is a gene silencer of Bacillus subtilis; high values mean tight binding; most listed sequences are background and not binding sites; double strand, one strand shown
row,Sequence,binding signal
1,GTCAGCTA,-0.112 E-score
2,GCCTGCAA,-0.165 E-score
3,CTACAGGC,-0.133 E-score
4,GAGAGTCA,-0.203 E-score
5,ACCTGCTG,-0.254 E-score
6,CCTACATA,0.0626 E-score
7,GCAGATAC,-0.00726 E-score
8,CCAGCAGC,-0.123 E-score
9,ATCATTTC,-0.0795 E-score
10,CTGAACAC,-0.259 E-score
11,CATTTATC,0.218 E-score
12,GGACAGAA,-0.145 E-score
13,AAACGTTG,-0.172 E-score
14,GGTTCGGA,-0.284 E-score
15,ATGCCGTC,-0.117 E-score
16,CACCGTCC,-0.124 E-score
17,AGGGACAA,-0.155 E-score
18,CTGTTACC,-0.105 E-score
19,GATGAGTA,0.158 E-score
20,AGTTGAAG,0.191 E-score
21,AGGCGAAT,0.058 E-score
22,CACATTGG,0.0438 E-score
23,ATAGGAGC,-0.036 E-score
24,CGATAGGA,-0.0106 E-score
25,CTAATTAC,0.382 E-score

row,Sequence,binding signal
1,ACAGTTCG,0.19 E-score
2,ACGACGGG,-0.224 E-score
3,AATTACAC,0.304 E-score
4,CCACTTAA,0.00718 E-score
5,AAAGACGG,0.129 E-score
6,GACCGGCC,-0.178 E-score
7,CGCAAGGC,-0.332 E-score
8,GAGATTAC,0.0639 E-score
9,AAATGGGC,-0.0731 E-score
10,AAAGACCA,-0.0827 E-score
11,GCCAACCC,-0.235 E-score
12,CTTTTTCA,0.0406 E-score
13,CTACTATC,0.344 E-score
14,TCCTTCGA,-0.145 E-score
15,AAGCCGTA,0.13 E-score
16,GTATACCA,0.267 E-score
17,CGTTTCCA,-0.0556 E-score
18,CAGTGCTA,-0.0266 E-score
19,AGCGTCCA,-0.0715 E-score
20,ATTTCTGA,0.0193 E-score
21,AAACACCT,-0.0592 E-score
22,GTGGAGAA,0.071 E-score
23,CACATAAC,0.0703 E-score
24,GAGCCAGC,-0.313 E-score
25,ACTTTTCT,0.119 E-score

row,Sequence,binding signal
1,GGAACTTA,-0.00528 E-score
2,AGATATCT,0.355 E-score
3,ATTAGGTG,0.179 E-score
4,AAATTAAT,0.285 E-score
5,GGGTCTTA,-0.219 E-score
6,ACACACAG,0.093 E-score
7,TGACAACA,-0.0615 E-score
8,AGAACACG,0.0807 E-score
9,TACAATAA,0.108 E-score
10,ACAATTTG,0.104 E-score
11,CTTCTTTC,-0.0629 E-score
12,CACATGTC,-0.0475 E-score
13,GAGTGTAC,-0.0119 E-score
14,AACGCAAT,0.22 E-score
15,GTTGCAAC,0.162 E-score
16,CGCGCTCA,-0.186 E-score
17,ACAGTCAG,-0.122 E-score
18,ACCGGACC,0.0114 E-score
19,CGGCCGAC,-0.317 E-score
20,CCTGCTCA,-0.142 E-score
21,GTCGCCAC,-0.207 E-score
22,GTTTTGCA,0.0567 E-score
23,GCTTACAA,-0.194 E-score
24,TCGACAGA,-0.151 E-score
25,ACCGGGAG,-0.154 E-score

row,Sequence,binding signal
1,ATTAAGGG,-0.0333 E-score
2,AGAAGGAT,0.0236 E-score
3,AGAGATTG,0.0802 E-score
4,CGGTGTGA,0.0408 E-score
5,ATATTCCC,0.19 E-score
6,ATTTATTC,0.0993 E-score
7,CAAATCTC,0.0537 E-score
8,CGACCGAC,-0.157 E-score
9,ACACTAAT,0.308 E-score
10,CGGTTACG,0.0791 E-score
11,CATATGCC,-0.12 E-score
12,ATTGTCCC,-0.213 E-score
13,AGAGGATG,0.0363 E-score
14,ATTAGTTA,0.336 E-score
15,GCAGCCAA,-0.0778 E-score
16,CATGCGAG,-0.248 E-score
17,GTACGATA,0.217 E-score
18,AATGCCTA,0.000871 E-score
19,CCAGCTTC,-0.205 E-score
20,GTGTTGGA,-0.0732 E-score
21,GATAATAA,0.174 E-score
22,AACCGACG,-0.147 E-score
23,CAGGTTAG,-0.165 E-score
24,CACAATAA,0.185 E-score
25,CACTGTCG,-0.109 E-score

row,Sequence,binding signal
1,GGAAAAAA,-0.0552 E-score
2,CATAGAGG,-0.0283 E-score
3,AACAAAAA,0.101 E-score
4,ATGAGTAG,0.281 E-score
5,AGCATCTG,-0.0677 E-score
6,CCACCCCG,-0.253 E-score
7,CGCTGCTA,0.0306 E-score
8,ACGACCGT,0.00992 E-score
9,AACCTTAT,-0.044 E-score
10,ATCACCTA,0.0381 E-score
11,AAAGAGGC,-0.108 E-score
12,AACGGGAA,-0.0937 E-score
13,GATACCGA,0.103 E-score
14,ACCGGCGC,-0.232 E-score
15,GCTCGAGA,-0.0729 E-score
16,AACACCGG,-0.0393 E-score
17,CATAACCC,-0.224 E-score
18,CTACCTGC,0.00887 E-score
19,CTTAACCC,0.0474 E-score
20,CCAGGGTA,0.0189 E-score
21,AAGATTCA,0.0971 E-score
22,ATAGATGC,0.22 E-score
23,ATCGTAGC,-0.0487 E-score
24,CCTAGTAC,0.0475 E-score
25,AAAGAGTT,0.123 E-score

row,Sequence,binding signal
1,ACAGCCCA,-0.071 E-score
2,ATCAGTCA,-0.174 E-score
3,CGCTGCAA,-0.0879 E-score
4,AATATTGC,0.15 E-score
5,CATTGCAC,0.0344 E-score
6,GTGCATAA,0.174 E-score
7,AATTGAAG,0.229 E-score
8,GCCCCGAC,-0.335 E-score
9,CCTAACGC,-0.153 E-score
10,AAACCAAG,0.00645 E-score
11,CAGACCCC,-0.358 E-score
12,GGGGTGCA,-0.159 E-score
13,CAAAAAGA,-0.0455 E-score
14,GAAAATGA,-0.0787 E-score
15,CGGCCGCA,-0.286 E-score
16,TAAAGGAA,-0.166 E-score
17,CTACGGGC,-0.093 E-score
18,CTTTGAAA,-0.0417 E-score
19,AACCATTG,-0.0933 E-score
20,AGGTAGCG,0.125 E-score
21,CAGTGCAG,-0.233 E-score
22,GTAACGTA,0.0867 E-score
23,CATCTTGA,-0.126 E-score
24,ACCGCTCC,-0.0739 E-score
25,CGGAACTC,-0.0422 E-score

row,Sequence,binding signal
1,CTAGGTTA,-0.0294 E-score
2,GGCAGCAC,-0.311 E-score
3,CCGATACA,0.175 E-score
4,GGAATAAA,0.138 E-score
5,AATTCAAT,0.22 E-score
6,CAAGATGA,-0.0963 E-score
7,ATCCGATA,0.203 E-score
8,AATTGAGA,-0.0343 E-score
9,ACACCAAA,0.162 E-score
10,CCTACGGC,-0.0892 E-score
11,ATGAATGA,0.158 E-score
12,CAACAGGA,-0.0379 E-score
13,GCAGCGGA,-0.0833 E-score
14,ACCTGCGA,0.0411 E-score
15,GACGGGAA,-0.161 E-score
16,CCTTACCA,-0.0792 E-score
17,CCCTGTTA,-0.000838 E-score
18,GAGCGTCA,-0.205 E-score
19,TATTAGGA,0.111 E-score
20,AACCCGCT,-0.245 E-score
21,AACTTCTG,0.193 E-score
22,ATCACGGC,0.0235 E-score
23,CTCGGCGC,-0.202 E-score
24,AGGCAGAC,-0.358 E-score
25,AGCAAATG,0.195 E-score

row,Sequence,binding signal
1,CGTGGTGC,-0.37 E-score
2,CATCGCCC,-0.274 E-score
3,CGACGCAG,-0.121 E-score
4,GACCCGCC,-0.243 E-score
5,CGCACGCC,-0.18 E-score
6,ATTCCGTG,0.17 E-score
7,ATTAAGTA,0.291 E-score
8,ATATTGAC,0.118 E-score
9,AAACGCTA,0.181 E-score
10,ACCAGAGG,-0.185 E-score
11,GCCCAATA,0.0681 E-score
12,AATACCCG,0.177 E-score
13,CTGAAATA,-0.0818 E-score
14,GTATTTTA,0.376 E-score
15,CGTGAATA,0.017 E-score
16,ACTTACAT,0.245 E-score
17,ACCTGTCA,-0.103 E-score
18,AAGGTCTC,-0.133 E-score
19,TCGCTCAA,0.0269 E-score
20,AGTGGTGG,-0.12 E-score
21,AGGTCTAA,0.0411 E-score
22,TCCTAACA,-0.107 E-score
23,TCGAGAGA,0.0288 E-score
24,CTGGTACC,0.0702 E-score
25,GGACTCAA,-0.00733 E-score

row,Sequence,binding signal
1,CATTGACG,0.0907 E-score
2,ATCCCTCC,-0.221 E-score
3,AATTCGAC,-0.0523 E-score
4,GCTTATCA,-0.154 E-score
5,GAGAACCC,-0.104 E-score
6,CAGGTGAA,-0.11 E-score
7,AGACCTCG,-0.0859 E-score
8,CAACCGGG,-0.294 E-score
9,CGGTAGCA,0.166 E-score
10,ATGGACTG,-0.124 E-score
11,GCTGATCC,-0.0276 E-score
12,AGAGACAT,0.0204 E-score
13,CCGACAAC,-0.076 E-score
14,CAACCCTG,-0.104 E-score
15,CAAAAACG,-0.131 E-score
16,ACGAGATG,-0.185 E-score
17,ATGTATGG,0.252 E-score
18,GGTAAACA,-0.0472 E-score
19,CGTGCTGA,-0.198 E-score
